# PubChem BioAssay AID686970 (National Center for Advancing Translational Sciences (NCATS), 2013)
# The whole screen tested about 360,000 compounds, of which about 6,000 (1.7%) were called active. The inconclusive results got no clear call from the source; some entries with a clear call stand among them for comparison. Calls come from the whole dose curve; as a rule, active = well fitted cell-killing curve with a large enough effect; inconclusive = small, poorly fitted or top-dose-only effect, or effect the other way; inactive = flat fitted curve, though single readings scatter. Potencies of inconclusive entries are left out as doubtful fits.
# Experiment: qHTS for induction of synthetic lethality in tumor cells producing 2HG: qHTS for the HT-1080-NT fibrosarcoma cell line;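 note: NT is the 2HG producing partner of a matched IDH1 knockdown line; nearly all actives have a fitted effect of over 55% in size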;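 for activity, negative = less viability: 0% = DMSO-treated cells and -100% = media-only wells without cells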
# Details: HT-1080-NT fibrosarcoma viability, CellTiter-Glo ATP luminescence, 48 h; activity, negative = less viability: at 46.1 µM (top of the series) unless noted
# Procedure, shortened: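 A 48-hour cytotoxicity screen used HT-1080-NT cells plated 2 hours before compound delivery. ATP-based CellTiter-Glo luminescence measured viability, normalized to DMSO and no-cell controls.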
# Potency is the fitted concentration of half-maximal effect; tags give direction and shape of the fitted curve.
SMILES,Potency,"activity, negative = less viability"
NC(COCc1ccccc1)c1csc(NC(=O)Nc2cccc(Cl)c2)n1 (stereo not drawn),"inconclusive [cytotoxic, single point]",
Cc1onc(-c2ccc(Cl)cc2Cl)c1-c1csc(COc2ccccc2)n1,"inconclusive [rising, single point]",
CCOc1ccc(S(=O)(=O)NCc2ccccn2)cc1NC(=O)c1ccccc1F,active: 0.92 µM,
CCc1ccccc1NS(=O)(=O)c1ccc2[nH]cc(C(=O)NC3CCCC3)c(=O)c2c1,"inconclusive [cytotoxic, partial curve]",
CCN(CC)c1ccc(NC2=C(Cl)C(=O)c3ccccc3C2=O)cc1,"inconclusive [cytotoxic, single point]",
CCOC(=O)c1ccc(NC(=S)N(CCCN2CCCCC2)Cc2ccco2)cc1,,inconclusive: -32.7% [cytotoxic]
Cc1sc2ncn3ncnc3c2c1C,,inactive: -10.4%
CC(C)(C)NC(=O)NC(=O)CN1c2cccc3cccc(c23)S1(=O)=O,,inactive: -0.829%
CC(C)(CNS(=O)(=O)c1ccc2ccccc2c1)N1CCOCC1,,inactive: 10.4%
O=C(CNc1ccc(C(F)(F)F)cc1)Nc1cccc(S(=O)(=O)N2CCCCC2)c1,"inconclusive [cytotoxic, single point]",
Cc1cc(C)c(O)c(-c2n[nH]c3c2C(c2cccc(O)c2)N(Cc2ccco2)C3=O)c1 (stereo not drawn),"inconclusive [cytotoxic, single point]",
O=C(Nc1cccnc1)c1ccc([N+](=O)[O-])o1,"inconclusive [cytotoxic, single point]",
Cc1ccc(S(=O)(=O)N(C)C)cc1NC(=O)CSc1ncc(C(F)(F)F)cc1Cl,,inactive: -16.6%
Cc1cc(=O)n(-c2ccc3ccccc3n2)[nH]1,"inconclusive [cytotoxic, single point]",
COc1ccc(C2/C=C\CN(C(=O)Nc3ccc(C(F)(F)F)cc3)CC(=O)N2Cc2ccc(F)cc2)cc1 (stereo not drawn),"inconclusive [cytotoxic, single point]",
Cc1cccc(NC(=O)CSCC(=O)Nc2cc(Cl)ccc2N2CCN(C)CC2)c1,active: 14.6 µM,
CCn1c(SCC(=O)Nc2nccs2)nnc1-c1cc2cccc(OC)c2o1,,inactive: 1.38%
COc1ccc(OC)c(NS(=O)(=O)c2ccc(SC)cc2)c1,"inconclusive [cytotoxic, single point]",
CCOc1ccccc1N(CC(=O)Nc1cccnc1)S(C)(=O)=O,,inactive: 11.8%
Cc1ccc(-n2nc3ccc(NC(=O)c4cccc([N+](=O)[O-])c4C)cc3n2)cc1,"inconclusive [cytotoxic, partial curve]",
CCC(C)NC(=O)c1c(N)n(/N=C/c2cccnc2)c2nc3ccccc3nc12 (stereo not drawn),"inconclusive [cytotoxic, single point]",
Cc1nnc(NC(=O)C2CC(=O)N(c3ccccc3)C2)s1 (stereo not drawn),"inconclusive [rising, partial curve]",
O=C(CSc1ccc(Cl)cc1)Nc1cccc(-c2nc3ncccc3o2)c1,,inactive: 16.4%
COc1cccc(Nc2nc(C(N)Cc3ccc(C(F)(F)F)cc3)cs2)n1 (stereo not drawn),active: 13 µM,
COc1ccc(C(=O)Nc2ccccc2C(=O)Nc2cc(C)ccn2)cc1,"inconclusive [cytotoxic, partial curve]",

SMILES,Potency,"activity, negative = less viability"
COc1ccc(-c2nc3ccc(C)cn3c2Cc2cccc(F)c2)cc1OC,"inconclusive [cytotoxic, single point]",
CCCC(=O)N(CCN1CCOCC1)c1nc2c(C)cccc2s1,,inactive: -0.0257%
COc1cc(C2/C(=C(\O)c3ccc4c(c3)OCCO4)C(=O)C(=O)N2Cc2ccco2)cc(OC)c1OC (stereo not drawn),,inactive: 9.23%
COc1cccc(C(=O)NC(=S)Nc2ccc3[nH]c(=O)[nH]c3c2)c1,"inconclusive [cytotoxic, single point]",
O=C(CC1CCS(=O)(=O)C1)Nc1ccc[nH]c1=O (stereo not drawn),,inactive: -0.593%
Cc1ccccc1-c1nc(CN2CCC(C(=O)NCCCN3CCCC(C)C3)CC2)c(C)o1 (stereo not drawn),active: 18.4 µM,
CC(=O)Nc1ccc(S(=O)(=O)NC2=C(N3CCN(c4ccc(F)cc4)CC3)C(=O)c3ccccc3C2=O)cc1,"inconclusive [cytotoxic, single point]",
COC(=O)N1CCc2c(sc(NC(=O)C3=COCCO3)c2C#N)C1,active: 4.61 µM,
COc1ccc(S(=O)(=O)N2CCCCCC2)cc1N(C)S(=O)(=O)c1ccc(Cl)cc1,"inconclusive [cytotoxic, single point]",
COc1ccc(C(=O)OCC(=O)Nc2sccc2C(N)=O)cc1OC,"inconclusive [cytotoxic, single point]",
O=C(Cn1ncc(Cl)c(Cl)c1=O)c1ccc(Cl)cc1,active: 14.6 µM,
CCOC(=O)c1[nH]c2ccc(F)cc2c1NC(=O)C(C)N1CCc2cc(OC)c(OC)cc2C1 (stereo not drawn),"inconclusive [cytotoxic, partial curve]",
Cc1ccccc1CC(=O)Nc1ccc2c(c1)c(=O)n(C)n2-c1cccs1,"inconclusive [cytotoxic, single point]",
O=C(CSc1nc(O)cc(=O)n1C1CCCC1)Nc1cccc(Cl)c1Cl,,inconclusive: -32% [cytotoxic]
Oc1ccc(/C=C/c2nc(-c3ccccc3O)n(-c3ccccc3)n2)cc1,"inconclusive [cytotoxic, single point]",
CC(C)C(CCNCc1ccccn1)c1ccc(Cl)cc1 (stereo not drawn),,inactive: -18.8%
COc1ccccc1N1CCN(C(=O)c2cc3sccc3n2C)CC1,,inactive: -2.62%
Cc1ccc(NC(=O)CN(C)C(=O)c2ccc(OCc3cn4ccccc4n3)cc2)cc1,,inactive: -4.1% [at 9.24 µM]
CC1=NN(C(=O)c2ccc(Cn3nc(C)c([N+](=O)[O-])c3C)cc2)C(O)(C(F)(F)F)C1 (stereo not drawn),active: 4.47 µM,
Cc1cc([N+](=O)[O-])nn1CC(=O)N/N=C/c1ccccc1O,"inconclusive [cytotoxic, single point]",
C[C@@H](c1ccccc1)N1C[C@@H](COCc2ccccc2)Oc2cc(N3CC[C@@H](O)C3)ccc2S1(=O)=O,"inconclusive [cytotoxic, single point]",
O=C(N/N=C/c1ccccc1OC(F)F)c1cc(-c2ccncc2)nc2ccccc12,"inconclusive [cytotoxic, full curve]",
NCCCCc1ccc2ccc3cccc4ccc1c2c34,"inconclusive [cytotoxic, partial curve]",
CCc1nc(SCc2nc3ccccc3[nH]2)c2oc3ccccc3c2n1,"inconclusive [cytotoxic, single point]",
Cc1ccc(C(=O)Nc2cccc(C(F)(F)F)c2)cc1Nc1cnccn1,,inactive: -1.29%

SMILES,Potency,"activity, negative = less viability"
O=C(Nc1ccc2ccccc2c1)c1cn(-c2ccccc2)nc1-c1cccs1,"inconclusive [cytotoxic, single point]",
O=C(N/N=C/C(Br)=C\c1ccccc1)c1n[nH]c2c1CCC2,active: 0.316 µM,
O=C(CCSCc1cccc(Cl)c1)NCCc1ccccc1,,inactive: 10.6%
CCCc1c(-c2ccccc2Br)ncn1Cc1ccccc1OC,"inconclusive [cytotoxic, single point]",
c1ccc2c(-c3csc(-c4ccncc4)n3)c[nH]c2c1,"inconclusive [cytotoxic, single point]",
CCCCNC(=O)C[C@@H]1C[C@@]2(C(=O)OC)CCCCC=C2N(Cc2ccccc2)C1=O,,inactive: 19.3%
CN1CCN(C(=S)Nc2ccccc2Cl)CC1,,inactive: -1.67%
Cc1ccc(/C=C/C(=O)N2CC(C)CC(C)C2)o1 (stereo not drawn),"inconclusive [cytotoxic, single point]",
Cc1nc(NC(=O)c2ccccc2)sc1-c1csc(N)n1,,inactive: -19.1%
NC(c1ccc(F)c(F)c1)c1nc(-c2cncnc2)cs1 (stereo not drawn),"inconclusive [rising, partial curve]",
Cc1cc(SCC(=O)OC/C(O)=C(\C#N)c2nc3ccccc3[nH]2)c(C)cc1Br,"inconclusive [cytotoxic, single point]",
CCN(c1ccccc1)S(=O)(=O)c1cc(C(=O)Nc2cccc(Cl)c2)ccc1F,"inconclusive [cytotoxic, partial curve]",
O=C(NC(=S)Nc1ccc(S(=O)(=O)N2CCCC2)cc1)c1cccs1,,inactive: 0.331%
CC(C)Oc1ccc(Br)cc1C(=O)N/N=C/c1c[nH]c2ccccc12,"inconclusive [cytotoxic, single point]",
CCOC(=O)Cn1c(=NC(=O)c2cc(-c3cccs3)nc3ccccc23)sc2cc(S(N)(=O)=O)ccc21,"inconclusive [cytotoxic, single point]",
Nc1c(C(=O)Nc2ccc3c(c2)OCCO3)nnn1Cc1ccccc1,,inactive: -20.1%
Clc1ccc(Cn2ncc3c(NCc4ccccc4)ncnc32)cc1,active: 5.8 µM,
OCC1(Cc2ccc(F)cc2F)CCCN(Cc2ccc(Cl)cc2)C1 (stereo not drawn),"inconclusive [cytotoxic, single point]",
Cc1ccc2c(CSc3nc4ccccc4c(=O)n3CCCO)cc(=O)oc2c1C,"inconclusive [cytotoxic, partial curve]",
CCOc1ccc2[nH]c3c(NCCCOC)ncnc3c2c1,,inactive: 0.419%
O=C(Nc1nc2ccccc2s1)c1ccccc1[N+](=O)[O-],,inactive: -15.3%
Cc1cc(C)c(NS(=O)(=O)c2ccc3c(c2)NC(=O)CCS3)c(C)c1,,inactive: -1.2%
O=C(Cc1ccccc1)Nc1ccccc1CO,"inconclusive [rising, single point]",
